# In all, about 52,000 compounds went through this assay and about 1,700 (3.3%) were called active. Cut-off read from the data, not from the text of the source: active = survival mostly below about 52% (no sharp cut-off); inactive = mostly above about 56%. The list shows a part of the results.
# Tested on: Wild type
# Experiment: growth inhibition of S. aureus wild type versus tarO mutant, primary screen, teichoic acid synthesis inhibitors, RN4220, OD600 (AID 463173)
# Conditions: S. aureus RN4220 wild type/DeltatarO growth, OD600, 18 h, active compounds read low, screened at 18.75 µg/mL (by protocol)
row,SMILES,survival
1,O=C1CC(c2c(Cl)cccc2Cl)c2c(ccc3ccccc23)N1 (stereo not given),inactive: 73%
2,O=C(Nc1ccccc1C(F)(F)F)c1ncoc1-c1ccco1,inactive: 93%
3,COc1ccc(-c2cc(C(F)(F)F)nc(SCCC(=O)Nc3ccc(NC(C)=O)cc3)n2)cc1,inactive: 79%
4,COc1cc(C2C(=O)N(C3CCCCC3)CC(=O)N2CCc2ccccc2)ccc1OC(C)C (stereo not given),inactive: 89%
5,CCCCN(C)CCCNC(=O)C1CCN(S(=O)(=O)CCC)CC1,inactive: 77%
6,COc1ccc(CNC(=O)c2cc(Nc3ccccc3C)nc3ccccc23)cc1,inactive: 85%
7,CCN(CC)c1ccc(CNCCCSc2nnnn2C)cc1,inactive: 89%
8,Cc1oc(-c2cccc(Cl)c2)nc1CN1CCC(C(=O)NC(C)c2ccccc2)CC1 (stereo not given),inactive: 88%
9,COc1ccc(Cl)cc1NC(=O)CSc1cn(CC(=O)N2CCCCC2)c2ccccc12,inactive: 86%
10,CCOc1ccc(CN2C(=O)c3ccccc3Sc3ccc(C(=O)NCc4ccco4)cc32)cc1,inactive: 89%
11,Cc1oc2ncn(C)c(=O)c2c1C(=O)N1CCN(c2cccc(C(F)(F)F)c2)CC1,inactive: 82%
12,COCCNc1nc2c(c(=O)n(C)c(=O)n2C)n1Cc1c(F)cccc1Cl,inactive: 64%
13,COc1ccc(C(=O)Nc2ccccc2C(=O)NCc2ccco2)cc1,inactive: 107%
14,CCc1ccc(NC(=O)CC2C(=O)NCCN2C(=O)c2ccc(F)cc2)cc1 (stereo not given),inactive: 90%
15,CCc1ccc(NC(=O)NCCc2c(C)nn(C)c2C)cc1,inactive: 81%
16,COc1ccc(S(=O)(=O)c2c(Nc3ccccc3F)sc(C(=O)c3cccc(OC)c3)c2N)cc1,inactive: 113%
17,COc1ccccc1CNS(=O)(=O)Cc1ccccc1,inactive: 121%
18,Cc1cccc(NC(=O)CSc2nnc(NC(=O)Nc3ccccc3)s2)c1C,inactive: 78%
19,CSc1ccc(C2C(C(=O)Nc3ccccc3)=C(C)Nc3nc4ccccc4n32)cc1 (stereo not given),inactive: 69%
20,COc1cccc(C2CC(=O)Nc3c2ccc(C)c3C)c1OC (stereo not given),inactive: 87%
21,CCOc1ccccc1CNC(=O)c1ccc(CS(=O)Cc2cccc(Cl)c2)o1 (stereo not given),inactive: 82%
22,CSc1ccc(CNC(=O)Cn2nc(N3CCN(c4ccccc4)CC3)ccc2=O)cc1,inactive: 64%
23,Cc1ccccc1CNC(=O)C(=O)NCC(c1ccco1)S(=O)(=O)c1cccs1 (stereo not given),inactive: 79%

row,SMILES,survival
1,COc1cccc(NC(=O)CSc2nnc(-c3cccc(OC)c3)o2)c1,inactive: 90%
2,Cc1ccc(NC(=O)CSc2ncc(-c3ccccc3)[nH]2)cc1,inactive: 62%
3,CCOC(=O)c1c(C)[nH]c(C)c1S(=O)(=O)N1CCCC(C(=O)Nc2cc(C)ccc2C)C1 (stereo not given),inactive: 51%
4,CCC(=O)N1CCc2cc(CNC(=O)c3ccccc3C)ccc21,inactive: 90%
5,CCCCNC(=O)CSc1nc2nc(C)c(Cc3c(F)cccc3Cl)c(C)n2n1,inactive: 59%
6,CCc1ccc(-n2c(=O)c3sc4ccccc4c3n(CC(=O)N(CC)Cc3ccccc3)c2=O)cc1,inactive: 85%
7,O=C(Nc1ccc2nc(SCC(=O)N3CCc4ccccc43)sc2c1)c1ccccc1,inactive: 82%
8,Cc1ccc2sc(-c3ccc(N)cc3)nc2c1,inactive: 19%
9,Cc1ccc(-c2nnc(Nc3ccccc3O)c3ccccc23)cc1,inactive: 86%
10,Cc1ccc(Cl)cc1N1CCN(C(=O)c2cnn(C)c2C2CCN(C(=O)OC(C)(C)C)CC2)CC1,inactive: 74%
11,O=C(Nc1cc2c(cc1C(=O)c1ccccc1Br)OCCO2)c1ccccc1,inactive: 66%
12,CC(=O)c1ccc(NC(=O)COc2ccccc2-c2nc(-c3ccc(C)cc3)no2)cc1,inactive: 84%
13,O=C(NC1CC(=O)N(c2cccc(F)c2)C1)c1ccc2c(c1)OCO2 (stereo not given),inactive: 70%
14,CCc1ccc(N(CC(=O)N2CCCCC2)S(C)(=O)=O)cc1,inactive: 111%
15,Cc1ccc(OCC(=O)Nc2ccccc2C(=O)OCc2cc(=O)n3ccsc3n2)cc1,inactive: 72%
16,O=C(C1CCC(Cn2c(=O)c3sccc3n(Cc3ccccc3)c2=O)CC1)N1CCOCC1 (stereo not given),inactive: 95%
17,O=C(Nc1ccccc1F)c1ccc(Cn2nc(N3CCN(c4ccccc4)CC3)ccc2=O)o1,inactive: 75%
18,COc1cc(OC)c(NC(=O)N2CCc3c([nH]c4ccccc34)C2c2ccccc2F)cc1Cl (stereo not given),inactive: 77%
19,Cc1cc(C)c(NC(=O)CN2C(=O)c3cccnc3Sc3ccccc32)c(C)c1,inactive: 84%
20,O=C(CCC(=O)N1CC2CCCN2c2ccccc21)NCc1ccc(F)cc1 (stereo not given),active: -2%
21,CCc1cc(C(=O)Nc2c(C)nn(Cc3ccccc3Cl)c2C)no1,inactive: 64%
22,O=S(=O)(c1ccc(F)cc1)N(CC(O)Cn1c2ccccc2c2ccccc21)c1ccccc1 (stereo not given),inactive: 63%
23,COc1ccc(C(=O)NCC(c2ccc3c(c2)OCO3)N2CCN(C)CC2)cc1 (stereo not given),inactive: 60%

row,SMILES,survival
1,O=C(c1ccco1)N1CCCN(C(=O)c2ccco2)CC1,inactive: 102%
2,CCOc1ccc(CCNC(=O)c2nnc(Cc3ccc(Cl)cc3Cl)o2)cc1OCC,inactive: 88%
3,COc1cc(OC)c(N(C)C(=O)c2c(C)oc3ncnc(N4CCCCC4)c23)cc1Cl,inactive: 64%
4,CCOc1ccc2nc(N3CCN(C(=O)c4ccco4)CC3)sc2c1,inactive: 67%
5,CC(/C=N/NC(=O)c1ccco1)=C\c1ccco1,inactive: 122%
6,Cc1ccc2c(=O)cc(C(=O)NCc3ccccc3)oc2c1,inactive: 82%
7,COc1ccc(CNC(=O)C2CCCN(S(=O)(=O)c3ccc4c(ccn4C)c3)C2)c(OC)c1 (stereo not given),inactive: 19%
8,CCOC(=O)c1cc2c(=O)n3ccccc3nc2n(CC2CCCO2)c1=NC(=O)c1ccccc1C (stereo not given),inactive: 60%
9,CCn1cc(/C=C(\NC(=O)c2ccc(C)cc2)C(=O)NCCCn2ccnc2)c2ccccc21,inactive: 96%
10,COc1ccc(NC(C)=O)cc1NC(=O)C1(c2cccs2)CCOCC1,inactive: 71%
11,Cc1cc(C)cc(-n2c(SCC(=O)N3CCC(C)CC3)nc3c([nH]c4ccccc43)c2=O)c1,active: -1%
12,Cc1ccc(C)c(N2CCN(C(=O)Cc3c(C(=O)O)c(C)cn3C)CC2)c1,inactive: 75%
13,CCc1ccc(-n2nc(CO)c(C(=O)NCCc3ccccc3)n2)cc1,inactive: 87%
14,O=C(CSc1nc2c([nH]c3ccccc32)c(=O)n1-c1ccc(F)cc1)N1CCc2ccccc21,inactive: 87%
15,COc1cccc(C(=O)N2CCCCC2CCN2CCCCC2)c1 (stereo not given),inactive: 94%
16,CC1CCN(S(=O)(=O)c2ccccc2)CC1,inactive: 108%
17,Cc1oc(-c2ccccc2F)nc1CS(=O)CC(=O)NC(C)C (stereo not given),inactive: 82%
18,Cc1cccc(Cn2c(CNS(=O)(=O)c3ccc(C(C)C)cc3)nc3cccnc32)c1,inactive: 78%
19,N#Cc1c(NC(=O)c2cccs2)sc2c1CCCCC2,inactive: 96%
20,COc1ccc(OC)c(NC(=O)c2cccc3c2C(=O)N(C2CCCCC2)C3)c1,inactive: 58%
21,CCOc1ccccc1NC(=O)c1c2c(nc3ccccc13)C(=O)N(C1CCCCC1)C2,inactive: 47%
22,COc1ccc(-c2nc3n(n2)C(c2ccccc2OC)C(C(=O)Nc2cccnc2)=C(C)N3)cc1 (stereo not given),inactive: 76%
23,O=C(C1CCC(CNS(=O)(=O)c2ccc(Br)s2)CC1)N1CCN(c2ccc(F)cc2)CC1 (stereo not given),inactive: 91%

row,SMILES,survival
1,CCc1ccccc1NC(=O)CC1NCCNC1=O (stereo not given),inactive: 87%
2,CCOc1ccc(C(=O)Nc2ccc3oc(-c4ccc(C)cc4C)nc3c2)cc1Br,inactive: 67%
3,C=CCNC(=O)C1CCN(S(=O)(=O)c2cccc(C(F)(F)F)c2)CC1,inactive: 100%
4,CCOc1ccc(NC(=O)Cn2c(=O)n(CCCCC(=O)NCCc3ccc(Cl)cc3)c(=O)c3ccccc32)cc1,inactive: 89%
5,CCC1CN(C(=O)N2CCC(C(=O)N3CCN(c4ccccc4)CC3)CC2)c2ccccc2O1 (stereo not given),inactive: 83%
6,Cc1ccc(-n2c(=O)c3ccc(C(=O)NCc4ccco4)cc3n(CC(=O)Nc3ccc(C)c(F)c3)c2=O)cc1,inactive: 71%
7,COc1ccc(CNC(=O)c2ccc3c(c2)nc2n3CCCCC2)cc1,inactive: 82%
8,Cc1ccc(NS(=O)(=O)c2ccc3c(c2)N(C)C(=O)CC(=O)N3C)cc1Cl,inactive: 71%
9,N#CCCCN1C(=O)C(=C(C#N)C#N)c2ccccc21,inactive: 109%
10,O=S(=O)(NCC(c1cccs1)S(=O)(=O)c1ccccc1)c1ccccc1 (stereo not given),inactive: 82%
11,CCOc1ccc(-n2c(SCC(=O)NCc3ccccc3)nc3n[nH]c(C)c3c2=N)cc1,inactive: 134%
12,CCOC(=O)N1CCc2c(sc(NCc3ccc(N(CC)CC)cc3)c2C(=O)Nc2cc(OC)ccc2OC)C1,inactive: 68%
13,Cc1cc(C)n(C(C)CC(=O)Nc2ccc(Cl)cc2C)n1 (stereo not given),inactive: 83%
14,CC1Cc2cc(S(=O)(=O)CCC(=O)Nc3ccccc3F)ccc2N1C(=O)C1CC1 (stereo not given),inactive: 73%
15,COc1cccc(CN2C(=O)C3(SCC(=O)N3c3ccc(C)c(Cl)c3)c3ccccc32)c1 (stereo not given),inactive: 64%
16,CNC(=S)N1CCN(c2ccccc2F)CC1,inactive: 111%
17,CCOc1ccc(Sc2cc(C(=O)NCc3ccc(C)cc3)c3ccccc3n2)cc1,inactive: 95%
18,COCCCn1c(=N)c(C(=O)NC2CCCC2)cc2c(=O)n3cccc(C)c3nc21,inactive: 121%
19,CCOc1ccccc1NS(=O)(=O)c1cc2[nH]c(=O)c(=O)[nH]c2cc1C,inactive: 78%
20,COc1ccc(Cn2ccc3nc(C)c(C(=O)Nc4cc(OC)c(OC)c(OC)c4)cc3c2=O)cc1,inactive: 124%
21,Cc1cccc(C(=O)n2nc(C)c(S(=O)(=O)N3CCOCC3)c2C)c1,inactive: 89%

# From PubChem BioAssay AID463173 (ICCB-Longwood Screening Facility, Harvard Medical School, 2010)
